PMC12040169 (PLOS Biology, 2025)
Some of the results follow.

What follows are compounds tested on T1, C. trachomatis L2/434/Bu expressing GFP (CTL2-GFP). Conditions: total inclusion area; 28.5 h, 10 µM; inhibitor.
T1 construct: L2/434/Bu GFP intracellular growth in HeLa cells
Parameters: species or system HeLa; C. trachomatis total inclusion area by high-content imaging, normalised to DMSO
Outline: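 Imaging read-out: GFP inclusions and Hoechst nuclei captured by high-content imaging after fixation. Inclusion area/number = chlamydial growth; nuclei count = host cell viability. MIC calculated per earlier method.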
`CCOc1ccc(-c2ccnc(N3CCC(N(C)C)C3)n2)cc1C(=O)O` (stereo not drawn) [CBK307241] was tested, and the “% of control remaining” value was 71.5806.
For `Cc1ccc(-n2c(SCC(=O)NC(C)Cc3ccccc3)nc3sc4c(c3c2=O)CC(C)(C)OC4)cc1` (stereo not drawn) [CBK267714], the “% of control remaining” value was 102.955.
In the case of `O=C(NCc1ccc2c(c1)OCO2)[C@H]1CN2CCC1C[C@@H]2Cn1cc(-c2ccccn2)nn1` (stereo partly drawn) [CBK289082], the “% of control remaining” value is reported as 103.607.
In the case of `O=C(O)c1ccc(-n2nnnc2Sc2nc([N+](=O)[O-])nn2Cc2ccccc2F)cc1` [CBK268498], the “% of control remaining” value is reported as 145.135.
For `C(=N\c1ccc(Cc2ccc(/N=C/c3cccnc3)cc2)cc1)/c1cccnc1` [CBK260884], the “% of control remaining” value was 109.852.
With `COc1ccc(OC)c(NC(=O)CN2CCC(C(N)=O)(N3CCCCC3)CC2)c1` [CBK268462] the “% of control remaining” value was 99.5875.
With `O=C(O)c1cccc(N2C(=O)CC(n3cnc4ccccc43)C2=O)c1` (stereo not drawn) [CBK291145] the “% of control remaining” value was 103.547.
For `O=C(C[C@@H]1O[C@H](CNCc2cccc(Cl)c2)[C@@H](O)[C@H]1O)N1CCOCC1` [CBK288905], the “% of control remaining” value was 112.056.
For `CC(NCCN1CCOCC1)=C1C(=O)c2ccccc2C1=O` [CBK262691], the “% of control remaining” value was 99.1088.
For `O=c1oc(-c2ccco2)nn1Cc1ccc([N+](=O)[O-])cc1` [CBK295593], the “% of control remaining” value was 94.4508.
`CCCC(=O)CCOC(=O)C1=C(C)OC2C1Nc1cc(F)c(F)cc1N2CC` (stereo not drawn) [CBK022099] was tested, and the “% of control remaining” value was 111.008.
`CC(=O)Nc1ccc(-c2cncc(N3CCN(C(=O)c4ccco4)CC3)n2)cc1` [CBK066065] was tested, and the “% of control remaining” value was 132.37.
With `O=C(c1cccs1)N1CCC(c2n[nH]c3ncccc23)CC1` [CBK284904] the “% of control remaining” value was 126.513.
`Cc1noc(C)c1C(=O)N1CCC(c2nc(C)n3ccsc23)CC1` [CBK285239] was tested, and the “% of control remaining” value was 123.871.
In the case of `CC(C)c1n[nH]c(C2CN(Cc3nc4c(F)cccc4[nH]3)CCO2)n1` (stereo not drawn) [CBK305225], the “% of control remaining” value is reported as 31.0254.
In the case of `CN1CCCN(c2nccnc2-c2cccs2)CC1` [CBK088823], the “% of control remaining” value is reported as 92.8995.
With `CC(C)c1nnc(NS(=O)(=O)c2ccc(N)cc2)s1` [CBK050163] the “% of control remaining” value was 51.1918.
`Cc1ccc(C(C)C(=O)N2CCC(C(=O)c3cccnc3)CC2)cc1` (stereo not drawn) [CBK283516] was tested, and the “% of control remaining” value was 96.8556.
`O=C(Nc1cccc(C(F)(F)F)c1)Nc1cccc(S(=O)(=O)N2CCOCC2)c1` [CBK267043] was tested, and the “% of control remaining” value was 53.5522.
With `CCC12CN3CC(CC)(CN(C1)C3c1ccccc1[N+](=O)[O-])C2=O` (stereo not drawn) [CBK264604] the “% of control remaining” value was 107.218.
In the case of `Cc1nn(CCNC(=O)C2CC(=O)N(Cc3ccccn3)C2)c(C)c1Cl` (stereo not drawn) [CBK307316], the “% of control remaining” value is reported as 69.7454.
In the case of `N#CCCN(C1CCCCC1)S(=O)(=O)c1cccc2nsnc12` [CBK009093], the “% of control remaining” value is reported as 95.8909.
With `O=S(=O)(c1ccc(Cl)cc1)N1CCN(c2cc(-c3ccco3)ncn2)CC1` [CBK091161] the “% of control remaining” value was 170.184.
With `CN(C)S(=O)(=O)Nc1ccc2[nH]ccc2c1` [CBK156321] the “% of control remaining” value was 100.36.
In the case of `O=C1CN(Cc2cnn(-c3ccc(F)cc3)c2)CCN1C1CCCC1` [CBK281926], the “% of control remaining” value is reported as 112.004.
In the case of `Cc1ccc2cc(COc3cccnc3[N+](=O)[O-])c(Cl)nc2c1C` [CBK297113], the “% of control remaining” value is reported as 72.1368.
In the case of `Cc1ccc(C2(O)CCN(CCNC(=O)c3cccs3)CC2)cc1` [CBK283322], the “% of control remaining” value is reported as 85.7809.
With `Cc1nc[nH]c1CN(Cc1cccc(F)c1)Cc1ccco1` [CBK282493] the “% of control remaining” value was 93.6638.
For `O=C(c1ccc(OC(F)(F)F)cc1)N1CCC2(CCN(C(=O)c3cc(F)c(F)cc3F)C2)C1` (stereo not drawn) [CBK131384], the “% of control remaining” value was 86.1278.
In the case of `CS(=O)(=O)Nc1ncc(-c2ccco2)cc1C(=O)NCc1ccc(F)cc1` [CBK076479], the “% of control remaining” value is reported as 67.5477.
For `Cc1cc(-c2cn3cc(C(=O)N4CCNCC4)nc3c(=O)n2C)c(C)o1` [CBK307325], the “% of control remaining” value was 66.4188.
For `COc1ccccc1-c1cnc(Nc2ccc(N3CCOCC3)cc2)c2nccn12` [CBK091230], the “% of control remaining” value was 141.699.
For `COc1cc(-c2nccnc2N[C@@H]2CCN(Cc3ccccc3)C2)cc(OC)c1OC` [CBK037651], the “% of control remaining” value was 131.755.
With `CN(C)/C=N/c1nc(=O)[nH]c2c1ncn2C1CC(O)C(CO)O1` (stereo not drawn) [CBK201285] the “% of control remaining” value was 131.708.
With `COc1ccc(C[C@@]23CC[C@@H](NC(=S)NCc4ccccc4)C[C@@H]2N(C)CC3)cc1` [CBK004262] the “% of control remaining” value was 74.3538.
For `CCC1CCCCN1C(=O)c1sc(C)nc1C` (stereo not drawn) [CBK089359], the “% of control remaining” value was 65.6688.
For `CCC(Sc1ccc2nnc(-c3cccnc3)n2n1)C(=O)O` (stereo not drawn) [CBK287623], the “% of control remaining” value was 102.796.
With `CN(C)S(=O)(=O)c1ccc2c(c1)nc1n2CCC1` [CBK115558] the “% of control remaining” value was 103.874.
With `CC(=O)C(C(=O)Nc1ccc(F)cc1)C(c1cccc2ccccc12)C(C#N)C#N` (stereo not drawn) [CBK262081] the “% of control remaining” value was 101.526.
In the case of `O=C(NCC1CCCO1)c1ccccc1Sc1ccc([N+](=O)[O-])cc1Cl` (stereo not drawn) [CBK266041], the “% of control remaining” value is reported as 108.546.
`COc1cccc(CN2CCCC3(C2)NCCc2c3[nH]c3cc(F)ccc23)c1` (stereo not drawn) [CBK039786] was tested, and the “% of control remaining” value was 72.0466.
In the case of `N#Cc1cccc(S(=O)(=O)N2CCCCC2CO)c1` (stereo not drawn) [CBK051524], the “% of control remaining” value is reported as 49.0309.
In the case of `COc1ccc(OC)c(-c2nc(Nc3ccccc3C)sc2CC(=O)O)c1` [CBK126811], the “% of control remaining” value is reported as 85.7873.
`COc1ccc([C@@]23CC[C@@H](NC(=O)Nc4ccc(F)c(C#N)c4)C[C@@H]2N(C)CC3)cc1OC` [CBK051659T] was tested, and the “% of control remaining” value was 99.3848.
With `CCOC(=O)N1CCC(NS(=O)(=O)c2cc(Br)ccc2OC)CC1` [CBK045463] the “% of control remaining” value was 91.5208.
In the case of `COC(=O)c1scc(NS(=O)(=O)c2cccc(C(F)(F)F)c2)c1C(=O)OC` [CBK026680], the “% of control remaining” value is reported as 89.9453.
`Cc1[nH]c2ccc(F)cc2c1CC(=O)N(C)CCN1CCCCC1` [CBK282748] was tested, and the “% of control remaining” value was 85.0808.
In the case of `COc1cc(CNc2cc(-c3ccccc3N(C)C)ncn2)cc(OC)c1OC` [CBK037123], the “% of control remaining” value is reported as 93.7925.
`Cc1ccc(OCCC(=O)NCC(c2cccs2)N2CCOCC2)cc1` (stereo not drawn) [CBK305976] was tested, and the “% of control remaining” value was 42.3091.
With `CSc1nc(O)c(C(c2ccc(C)cc2)c2c(O)nc(SC)nc2O)c(O)n1` [CBK265313] the “% of control remaining” value was 100.562.
In the case of `O=S(=O)(Nc1ccc(N2CCNCC2)c2ccccc12)c1cc(Cl)sc1Cl` [CBK003116C], the “% of control remaining” value is reported as 63.2254.
With `COc1cccc(CN2CCN(C(=O)c3cc(-c4ccncc4)nc4ccc(C)cc34)CC2)c1` [CBK267760] the “% of control remaining” value was 94.4258.
With `COc1ccc(CCn2cncc2-c2cn(C)nc2C)cc1C` [CBK281814] the “% of control remaining” value was 114.767.
For `O=C(CCN1CCOCC1)Nc1cc(Cl)cc(Cl)c1` [CBK057021], the “% of control remaining” value was 92.4238.
In the case of `CC(C)C(NC(=O)C1CCC(C(C)(C)C)CC1)C(=O)O` (stereo not drawn) [CBK286610], the “% of control remaining” value is reported as 85.6696.
In the case of `COc1ccccc1C1(NC(=O)CCn2cccn2)CCCC1` [CBK283626], the “% of control remaining” value is reported as 107.586.
In the case of `COCC(=O)NC1CCN(CC2(c3cccc(F)c3)CCCC2)CC1` [CBK282546], the “% of control remaining” value is reported as 74.2301.
With `CC(CN1CCCCC1)NC(=O)c1cc(-c2ccncc2)nc2ccc(Br)cc12` (stereo not drawn) [CBK267756] the “% of control remaining” value was 89.6206.
In the case of `Cc1noc(C)c1NC(=O)c1cnc2ccccc2n1` [CBK200220], the “% of control remaining” value is reported as 78.3706.
For `CCNC(=O)NC[C@H]1C[C@@H]2CCN1C[C@@H]2c1cc(-c2ccc(F)cc2)nn1C` [CBK289110], the “% of control remaining” value was 100.061.
In the case of `NC(=O)C1(N2CCCCC2)CCN(C(=S)Nc2ccc(Oc3ccccc3)cc2)CC1` [CBK265862], the “% of control remaining” value is reported as 117.241.
`COc1ccc([C@@]23CC[C@@H](NC(=O)Nc4ccc(OC)c(C(F)(F)F)c4)C[C@@H]2N(C)CC3)cc1OC` [CBK051268T] was tested, and the “% of control remaining” value was 41.0773.
`COc1cccc(NC(=O)N(CCCO)C2CCc3ccccc32)c1` (stereo not drawn) [CBK305397] was tested, and the “% of control remaining” value was 89.0417.
For `CCOC(=O)c1ccc(NC(=O)C(C)Sc2nc3ccccc3[nH]2)cc1` (stereo not drawn) [CBK267330], the “% of control remaining” value was 117.191.
`O=C(O)c1cc(S(=O)(=O)Nc2ccccc2C(=O)O)ccc1Br` [CBK262371] was tested, and the “% of control remaining” value was 97.5221.
With `CCN1CCCN(c2ccnc(OCCN3CCOCC3)n2)CC1` [CBK083807] the “% of control remaining” value was 73.1539.
In the case of `COc1cc(Nc2cncc(-c3cccs3)n2)cc(OC)c1OC` [CBK065663], the “% of control remaining” value is reported as 69.7887.
For `COC(=O)CSc1nnc(COc2ccc3c(c2)OCO3)n1-c1ccccc1` [CBK266139], the “% of control remaining” value was 108.846.
`CN(C)c1ccc(-c2nnc([C@H]3CCN(C(=O)CCC(=O)O)C3)o2)cc1` [CBK289408] was tested, and the “% of control remaining” value was 109.606.
`COc1ccccc1-c1cc(Nc2cccc(N(C)C)c2)ncn1` [CBK091011] was tested, and the “% of control remaining” value was 101.974.
In the case of `CN(C)CCN(C)c1nc(-c2ccc(F)c(Cl)c2)cn2ccnc12` [CBK038007], the “% of control remaining” value is reported as 68.7403.
In the case of `COc1ccc2[nH]cc(CC(=O)N3CCCC4(CCN(Cc5ccccc5)C4)C3)c2c1` (stereo not drawn) [CBK136883], the “% of control remaining” value is reported as 90.4896.
`O=C(O)CCC(=O)Nc1ccc(Oc2ccccc2)cc1` [CBK286957] was tested, and the “% of control remaining” value was 63.1168.
`Cc1ccc(Nc2nc3c(c(=O)[nH]2)CCCC3)cc1` [CBK287895] was tested, and the “% of control remaining” value was 77.0601.
In the case of `CC(C)CCNC(=O)N1CCN(c2ccccc2)CC1` [CBK155203], the “% of control remaining” value is reported as 110.854.
With `COc1cc(C(O)c2cc3c(cc2CO)OCO3)cc(OC)c1OC` (stereo not drawn) [CBK200098] the “% of control remaining” value was 105.718.
For `CSCCC(C(=O)O)N1C(=O)c2ccc(C(=O)O)cc2C1=O` (stereo not drawn) [CBK265135], the “% of control remaining” value was 115.114.
For `CNC(=O)c1ccc(NS(=O)(=O)c2ccc(OC(F)(F)F)cc2)cc1` [CBK043495], the “% of control remaining” value was 79.3542.
